According to PubChem BioAssay AID1345082 (National Center for Advancing Translational Sciences (NCATS), 2018):
Screen size: about 94,000 compounds; about 4,000 (4.3%) were called active. Inconclusive means that the source gave no clear call. Such entries were picked first, then a sample of the others. The call rests on the fitted dose curve; in most records, active means well fitted inhibition curve with a large enough effect; inconclusive means small, poorly fitted or top-dose-only effect; inactive means no such curve, though single readings can be large or run the other way. Potencies of inconclusive entries are doubtful fits and often do not repeat.

assay: Cytotoxic Profiling in NIH 3T3 Cell Line of Diverse Libraries Using Quantitative High-Throughput Screening; details: NIH 3T3 viability, CellTiter-Glo ATP luminescence, 48-72 h; activity change, negative = cytotoxicity: at 96.7 µM (top of the series); series mostly up to 96.7 µM; further: nearly all actives have a fitted effect of over 55% in size
Procedure, shortened: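 Mouse fibroblast NIH 3T3 cells, 400 per well, received compound via pintool and were incubated for 48 or 72 hr prior to CellTiter-Glo ATP luminescence measurement.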
On the % scale 0 is the no-effect control and ±100 the full control effect; potency means the concentration at half of the fitted maximal effect; tags describe the fitted curve by direction and shape.

| Structure (SMILES) | Potency | activity change, negative = cytotoxicity | outcome |
| --- | --- | --- | --- |
| Cn1ccc(NC(=O)C2(C)CCCc3cnc(NCc4ccccc4)nc32)n1 (stereo unspecified) | active: 44.7 µM | – | – |
| N#Cc1ccc2nc(CO[C@H]3CN(C(=O)c4cccnc4)C[C@H]3F)[nH]c2c1 | – | inactive: -10.1% [at 174 µM] | – |
| COc1cccc(CNC(=O)c2cn3cc(-c4ccc(C)cc4)sc3n2)c1 | inconclusive: 31.6 µM [inhibitor, partial curve] | – | – |
| CCC(=O)N1CCOc2ccc(CN3CCc4ccccc4C3)cc2C1 | – | inactive: -24.3% | – |
| CC(=O)NC[C@H]1CCN(S(=O)(=O)c2ccc3c(c2)OCCO3)C[C@H]1N(C)C | – | inactive: -11.1% | – |
| Cc1noc(C)c1[S+](=O)([O-])N1CCCC2(CC(Cc3ccccc3)=NO2)C1 (stereo unspecified) | – | inactive: -15.9% | – |
| O=C(NCCN1CCOCC1)c1ccc(-c2ccc(N3CCCCCC3)nc2)cc1 | active: 35.5 µM | – | – |
| COc1ccc(Nc2ccnc(N3CCCC(C(=O)NCCCc4ccccc4)C3)n2)cc1 (stereo unspecified) | inconclusive: 20 µM [inhibitor, full curve, poor fit] | – | – |
| COc1ccc(CNC(=O)COc2ccc(-c3nnc4n3CCCC4)cc2)cc1 | – | inactive: 3.54% | – |
| CC1(c2ccccc2)N(Cc2ncccn2)C(=O)OC12CCN(CCCc1ccccc1)CC2 (stereo unspecified) | inconclusive: 70.8 µM [inhibitor, single point] | – | – |
| Clc1ccc(-c2cnc([C@@H]3COCCN3C3CCNCC3)[nH]2)s1 | – | inactive: -5.16% [at 174 µM] | – |
| Cc1ccc(CN2C(=O)[C@@H]3C[C@@H](O)CN3C3(CN(CCC(C)C)C3)C2=O)o1 | – | inactive: -4.76% [at 174 µM] | – |
| COc1cccc(CN2C(=O)CCCCC2C(=O)NC2CCCCCC2)c1 (stereo unspecified) | – | inactive: -11.1% | – |
| Cc1cn2nc(-c3nc(C4CCCN(C(=O)Cc5cccc(F)c5)C4)no3)cc2c(=O)[nH]1 (stereo unspecified) | – | inactive: -13.7% | – |
| Cc1cc2nc3n(c(=O)c2n1CC(=O)NCc1ccccc1)CCCCC3 | inconclusive: 70.8 µM [inhibitor, single point] | – | – |
| O=C1c2c(nc(CNCc3ccccc3)n2Cc2ccccc2)NCCN1CC1CC1 | inconclusive: 56.2 µM [inhibitor, partial curve, poor fit] | – | – |
| COc1ccc(-c2ccnc(-c3nnc(C)n3C(C)C)c2)cc1OC | active: 100 µM | – | – |
| Cc1c(-c2ccc(F)cc2)[nH]c2ccc(CNC(=O)c3ccc(CO)o3)cc12 | inconclusive: 39.8 µM [inhibitor, full curve, poor fit] | – | – |
| O=C(CC1CCCN(c2cnn(CC3CC3)c(=O)c2)C1)NCc1ccccc1Cl (stereo unspecified) | inconclusive: 70.8 µM [inhibitor, single point] | – | – |
| O=S(=O)(c1ccccc1)N1CCCC(c2nc(CCOCc3ccccc3)no2)C1 (stereo unspecified) | inconclusive: 50.1 µM [inhibitor, partial curve, poor fit] | – | – |
| CC(=O)N1CCC(c2nnc3n2C(C(=O)NCc2ccccc2)CC3)CC1 (stereo unspecified) | – | inactive: -11.8% | – |
| Cc1nn(-c2ccccc2)c2c1C(C)N(C1CN(C(=O)Nc3ccccc3F)C1)C2=O (stereo unspecified) | inconclusive: 70.8 µM [inhibitor, partial curve, poor fit] | – | – |

| Structure (SMILES) | Potency | activity change, negative = cytotoxicity | outcome |
| --- | --- | --- | --- |
| CCCCN1CCN(C(=O)c2csc(N3CCN(c4cccc(Cl)c4)CC3)n2)CC1 | inconclusive: 39.8 µM [inhibitor, partial curve, poor fit] | – | – |
| CCc1ccc(NC(=O)N2CC(c3nnc(-c4ccncc4)o3)C3(CCOCC3)C2)cc1 (stereo unspecified) | inconclusive: 70.8 µM [inhibitor, single point] | – | – |
| COC(=O)c1cccc(CN2C[C@@H]3C(C)(C)COc4ccc(OC)cc4[C@]3(CO)C2)c1 | inconclusive: 50.1 µM [inhibitor, partial curve, poor fit] | – | – |
| COCCCn1c(CN(C)CCc2ccccc2)cnc1S(=O)(=O)C1CCCC1 | inconclusive: 63.1 µM [inhibitor, partial curve, poor fit] | – | – |
| COc1ccc2[nH]c3c(c2c1)CCNC31CCN(Cc2scnc2C)CC1 | – | inactive: -23.8% | – |
| CS(=O)(=O)N1C[C@@H](COCC2CC2)[C@H](c2ccccn2)C1 | – | inactive: -4.08% | – |
| Cn1cnc(S(=O)(=O)N2CCCC(C(=O)NCCCN3CCCCCC3)CCNC(=O)CC2)c1 (stereo unspecified) | inconclusive: 70.8 µM [inhibitor, single point] | – | – |
| O=C(N1CCCCC1)N1CCN(c2cc(Cl)ncn2)C(=O)C1 | inconclusive: 70.8 µM [inhibitor, partial curve, poor fit] | – | – |
| CC(C)N1CCC(N2CCCC(N3CCN(c4cccc(C(F)(F)F)c4)CC3)C2)CC1 (stereo unspecified) | inconclusive: 39.8 µM [inhibitor, partial curve, poor fit] | – | – |
| CCOc1cccc(CNC(=O)[C@H]2CCC[C@H]2NC(=O)c2ccc(OC)cc2)c1 | – | inactive: -11.4% | – |
| CN[C@H](C(=O)N[C@H]1C[C@@](O)(C(=O)N[C@H](CC(C)C)C(N)=O)C[C@@H](O)[C@@H]1O)C(C)C | – | inactive: -23% [at 174 µM] | – |
| COc1ccc(CN2C[C@@H]3C(C(=O)Nc4ccccc4)=NO[C@@H]3C2)cc1OC | inconclusive: 56.2 µM [inhibitor, partial curve, poor fit] | – | – |
| COc1ccc(C(=O)N2CCCN(c3cc(-c4ccc(F)cc4)[nH]n3)CC2)cc1 | inconclusive: 56.2 µM [inhibitor, partial curve, poor fit] | – | – |
| CCCCOc1ccc(C(=O)N2CCC(Cc3nc(-c4ccccc4)no3)CC2)cc1 | inconclusive: 50.1 µM [inhibitor, partial curve, poor fit] | – | – |
| CCCCn1c(=O)c(C(=O)NCC2CC2)nc2cccnc21 | inconclusive: 79.4 µM [inhibitor, partial curve, poor fit] | – | – |
| Cn1c2c(c3ccccc31)CN(C(=O)Nc1ccc(Cl)cc1Cl)CC2 | inconclusive: 50.1 µM [inhibitor, partial curve, poor fit] | – | – |
| CC(=O)Nc1cccc(-c2cc3c(ccn3Cc3ccncc3)c(N3CCOCC3)n2)c1 | inconclusive: 56.2 µM [inhibitor, partial curve, poor fit] | – | – |
| O=C(Nc1cccc(C(F)(F)F)c1)c1cnc2c(c1)N(C(=O)Cc1cccc(C(F)(F)F)c1)CCC2 | inconclusive: 15.8 µM [inhibitor, full curve, poor fit] | – | – |
| O=C(NCCc1ccccc1)C1CCN(c2cc(C(F)(F)F)ncn2)CC1 | – | inactive: -14.7% | – |
| O=C1NCc2ccccc2CC12CCN(Cc1ccc(F)c(Cl)c1)CC2 | – | inactive: -23.4% | – |
| CSc1ccc(-c2nc(CN(C)Cc3cnccn3)c(C)o2)cc1 | – | inactive: -9.31% | – |
| Cc1ccc(OCC(=O)c2ccc3c(c2)N(C(C)C(=O)NCC2CCCO2)C(=O)CO3)cc1C (stereo unspecified) | – | inactive: -9.27% | – |

| Structure (SMILES) | Potency | activity change, negative = cytotoxicity | outcome |
| --- | --- | --- | --- |
| COc1cccc(C(=O)N(C)C2CCCc3ccccc32)c1 (stereo unspecified) | inconclusive: 79.4 µM [inhibitor, partial curve, poor fit] | – | – |
| O=C(CCn1cnnn1)N1CCC2(CC1)Nc1ccccc1NC2=O | – | inactive: 4.85% | – |
| CCc1cccc(C)c1NC(=O)Cn1ccn2nc3c(c2c1=O)CCCC3 | inconclusive: 70.8 µM [inhibitor, partial curve, poor fit] | – | – |
| O=C1CC2(CCN(C(=O)c3ccc(Cl)cc3)CC2)Oc2ccccc21 | inconclusive: 44.7 µM [inhibitor, partial curve, poor fit] | – | – |
| CN1C(=O)[C@@H]2C[C@@H](CN2C(=O)COc2ccccc2)Oc2ccccc21 | – | – | inactive [at 138 µM] |
| O=C(NCCc1ccc(F)cc1)C1CCCN(Cc2cccc(-c3ccc(F)cc3F)c2)C1 (stereo unspecified) | inconclusive: 50.1 µM [inhibitor, partial curve, poor fit] | – | – |
| CCC(NCc1c(C(=O)N2CCCCCC2)nc2cc(C)ccn12)c1ccc(C)cc1 (stereo unspecified) | active: 44.7 µM | – | – |
| Cc1ccc(S(=O)(=O)N2CCCN(C)c3ccccc32)cc1C | inconclusive: 31.6 µM [inhibitor, full curve] | – | – |
| O=C(CCc1ccccc1)N1CC(Oc2ccc(-c3noc(C4CC4)n3)cc2)C1 | inconclusive: 10 µM [inhibitor, full curve, poor fit] | – | – |
| O=C(CN1Cc2nc(-c3ccsc3)ccc2OCC1=O)N1CCCC1 | inconclusive: 100 µM [inhibitor, partial curve, poor fit] | – | – |
| Cc1nn(-c2ccc(C(F)(F)F)cc2)c(C)c1[C@@H]1C=C[C@@H](NC(=O)CC2(CC(=O)O)CCCC2)C1 | inconclusive: 79.4 µM [inhibitor, single point] | – | – |
| COCCOC1CCN(C(=O)Nc2ccc3c(c2)OCCO3)CC1 | – | inactive: 4.81% | – |
| COc1ccc2c(c1)OC[C@@H]1CN(CCC#N)C(=O)CCN(C(=O)c3ccccc3OC)[C@H]21 | inconclusive: 70.8 µM [inhibitor, single point] | – | – |
| COc1ccccc1-c1ccc(CN2CCC(NC(=O)Cc3ccccc3)C2)cc1 (stereo unspecified) | active: 35.5 µM | – | – |
| COc1ccccc1Oc1ncccc1CNC(=O)Nc1cccc(C#N)c1 | active: 31.6 µM | – | – |
| CC[C@H]1CN(S(=O)(=O)c2ccccc2)CC[C@H]1CC(=O)N1CCOCC1 | inconclusive: 126 µM [inhibitor, single point] | – | – |
| CC[C@H]1CN(C(=O)c2ccc(F)cc2)CC[C@H]1CC(=O)Nc1nccs1 | inconclusive: 112 µM [inhibitor, partial curve] | – | – |
| CC(C)(C)OC(=O)N1CC(Nc2cccc(Oc3ccccc3)c2)C1 | inconclusive: 79.4 µM [inhibitor, partial curve] | – | – |
| COC[C@H]1NC(=O)CC[C@H]1C(=O)Nc1cccc(OC(F)(F)F)c1 | – | inactive: -22.6% | – |
| Cc1cccc(-c2cccc(CCOc3cnc4c(ccn4CC(=O)O)c3)c2)c1 | inconclusive: 89.1 µM [inhibitor, partial curve] | – | – |
| COc1ccccc1-c1[nH]nc2ncc(C(=O)N3CCN(Cc4ccccc4)CC3)nc12 | inconclusive: 35.5 µM [inhibitor, partial curve, poor fit] | – | – |
| N#Cc1cccc(CN2CCc3ncc(C(=O)NCCOc4ccccc4)n3CC2)c1 | active: 28.2 µM | – | – |
